# Test results: the supplement of paper PMC8728848
# Some of the results follow.
# B1: CrataBL (Crataeva tapia), C0HJA4 (protein)
# chain: AILTGVPYYILPSTSRAGFSPDNLRKNTSQLSCPLDLITQLRFPRRIGVPVIFTPQNSSLKVVPLSHNLNIHTCSDLWFCPESKIWTVKSSLTHGGSVVTTGGTFRSLGSWFRIERHGDSYKLVHCPRGSTPCRDVGIETVGGGGRRYLAPRDRPLAVRFTRASG
# Columns and labels:
# Experiment in all cases: glycan array binding signal (z-score within array); higher = stronger binding
# Details in all cases: glycan notation: IUPAC condensed, linker removed
# [1] = biological target: GlcNAc(b1-4)GlcNAc(b1-4)GlcNAc(b1-4)GlcNAc(b1-4)GlcNAc
# How it was run: (§1)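 Glycan array data were curated from 3228 arrays in the Consortium for Functional Glycomics database and kept only where the protein sequence was available. Glycan names were converted to IUPAC-condensed notation, and columns mapping to the same glycan were averaged. The binding signal is a within-array Z-score, averaged across arrays of the same protein sequence at different concentrations or buffers and across linkers. Negative Z-scores can be read as non-binding.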
# [2] = biological target: GlcNAc(b1-4)GlcNAc(b1-4)GlcNAc(b1-4)GlcNAc(b1-4)GlcNAc(b1-4)GlcNAc
# How it was run: as §1
# [3] = biological target: GlcNAc(b1-4)[GlcNAc(b1-6)]GalNAc
# How it was run: as §1
# [4] = biological target: GlcNAc(b1-6)Gal(b1-4)GlcNAc
# How it was run: as §1
# [5] = biological target: GlcNAc(b1-6)GalNAc
# How it was run: as §1
# [6] = biological target: GlcNAc6S(b1-3)Gal(b1-4)GlcNAc
# How it was run: as §1
# [7] = biological target: Kdn(a2-3)Gal(b1-3)GalNAc
# How it was run: as §1
# [8] = biological target: Kdn(a2-3)Gal(b1-3)GlcNAc
# How it was run: as §1
# [9] = biological target: Kdn(a2-3)Gal(b1-4)Glc
# How it was run: as §1
# [10] = biological target: Kdn(a2-3)Gal(b1-4)GlcNAc
# How it was run: as §1
# [11] = biological target: Kdn(a2-3)Gal(b1-4)[Fuc(a1-3)]GlcNAc
# How it was run: as §1
# [12] = biological target: Kdn(a2-6)Gal(b1-4)GlcNAc
# How it was run: as §1
# [13] = biological target: Man(a1-2)Man(a1-2)Man(a1-3)Man
# How it was run: as §1
# [14] = biological target: Man(a1-2)Man(a1-2)Man(a1-6)[Man(a1-3)]Man
# How it was run: as §1
# [15] = biological target: Man(a1-2)Man(a1-3)Man
# How it was run: as §1
# [16] = biological target: Man(a1-2)Man(a1-3)[Man(a1-2)Man(a1-6)]Man
# How it was run: as §1
# [17] = biological target: Man(a1-2)Man(a1-3)[Man(a1-2)Man(a1-6)]Man(a1-6)[Man(a1-2)Man(a1-2)Man(a1-3)]Man
# How it was run: as §1
# [18] = biological target: Man(a1-2)Man(a1-3)[Man(a1-2)Man(a1-6)]Man(a1-6)[Man(a1-2)Man(a1-2)Man(a1-3)]Man(b1-4)GlcNAc(b1-4)GlcNAc
# How it was run: as §1
# [19] = biological target: Man(a1-2)Man(a1-3)[Man(a1-6)]Man(a1-6)[Man(a1-2)Man(a1-3)]Man(b1-4)GlcNAc(b1-4)GlcNAc
# How it was run: as §1
# [20] = biological target: Man(a1-2)Man(a1-6)[Man(a1-3)]Man(a1-6)[Man(a1-2)Man(a1-2)Man(a1-3)]Man
# How it was run: as §1
# [21] = biological target: Man(a1-2)Man(a1-6)[Man(a1-3)]Man(a1-6)[Man(a1-2)Man(a1-2)Man(a1-3)]Man(b1-4)GlcNAc(b1-4)GlcNAc
# How it was run: as §1
# [22] = biological target: Man(a1-3)[Man(a1-6)]Man
# How it was run: as §1
# [23] = biological target: Man(a1-3)[Man(a1-6)]Man(a1-6)[Man(a1-2)Man(a1-3)]Man(b1-4)GlcNAc(b1-4)GlcNAc
# How it was run: as §1
# [24] = biological target: Man(a1-3)[Man(a1-6)]Man(a1-6)[Man(a1-3)]Man
# How it was run: as §1
# [25] = biological target: Man(a1-3)[Man(a1-6)]Man(a1-6)[Man(a1-3)]Man(b1-4)GlcNAc(b1-4)GlcNAc
# How it was run: as §1
# [26] = biological target: Man(a1-3)[Man(a1-6)]Man(b1-4)GlcNAc(b1-4)GlcNAc
# How it was run: as §1
# [27] = biological target: Man(a1-3)[Man(a1-6)]Man(b1-4)GlcNAc(b1-4)[Fuc(a1-6)]GlcNAc
# How it was run: as §1
# [28] = biological target: Man(a1-6)Man
# How it was run: as §1
# [29] = biological target: Man(b1-4)GlcNAc
# How it was run: as §1
# [30] = biological target: MurNAc(b1-4)GlcNAc
# How it was run: as §1
# [31] = biological target: Neu5Ac(a2-3)Gal
# How it was run: as §1
# [32] = biological target: Neu5Ac(a2-3)Gal(b1-3)GalNAc
# How it was run: as §1
# [33] = biological target: Neu5Ac(a2-3)Gal(b1-3)GalNAc(b1-3)Gal(a1-4)Gal(b1-4)Glc
# How it was run: as §1
# [34] = biological target: Neu5Ac(a2-3)Gal(b1-3)GalNAc(b1-4)[Neu5Ac(a2-3)]Gal(b1-4)Glc
# How it was run: as §1
# [35] = biological target: Neu5Ac(a2-3)Gal(b1-3)GalNAc(b1-4)[Neu5Ac(a2-8)Neu5Ac(a2-3)]Gal(b1-4)Glc
# How it was run: as §1
# [36] = biological target: Neu5Ac(a2-3)Gal(b1-3)GalNAc6S
# How it was run: as §1
# [37] = biological target: Neu5Ac(a2-3)Gal(b1-3)GlcNAc
# How it was run: as §1
# [38] = biological target: Neu5Ac(a2-3)Gal(b1-3)GlcNAc(b1-2)Man
# How it was run: as §1
# [39] = biological target: Neu5Ac(a2-3)Gal(b1-3)GlcNAc(b1-2)Man(a1-3)[GlcNAc(b1-4)][Neu5Ac(a2-3)Gal(b1-3)GlcNAc(b1-2)Man(a1-6)]Man(b1-4)GlcNAc(b1-4)GlcNAc
# How it was run: as §1
# [40] = biological target: Neu5Ac(a2-3)Gal(b1-3)GlcNAc(b1-2)Man(a1-3)[Neu5Ac(a2-3)Gal(b1-3)GlcNAc(b1-2)Man(a1-6)]Man(b1-4)GlcNAc(b1-4)GlcNAc
# How it was run: as §1
# [41] = biological target: Neu5Ac(a2-3)Gal(b1-3)GlcNAc(b1-3)Gal(b1-3)GlcNAc
# How it was run: as §1
# [42] = biological target: Neu5Ac(a2-3)Gal(b1-3)GlcNAc(b1-3)Gal(b1-4)GlcNAc
# How it was run: as §1
# [43] = biological target: Neu5Ac(a2-3)Gal(b1-3)GlcNAc(b1-3)GalNAc
# How it was run: as §1
# [44] = biological target: Neu5Ac(a2-3)Gal(b1-3)GlcNAc(b1-4)Gal(b1-4)Glc
# How it was run: as §1
# [45] = biological target: Neu5Ac(a2-3)Gal(b1-3)GlcNAc(b1-6)GalNAc
# How it was run: as §1
binder,measurement,setting,value
B1,glycan array binding signal (z-score),[1],-0.186
same,glycan array binding signal (z-score),[2],-0.205
same,glycan array binding signal (z-score),[3],-0.434
same,glycan array binding signal (z-score),[4],-0.119
same,glycan array binding signal (z-score),[5],0.02
same,glycan array binding signal (z-score),[6],-0.245
same,glycan array binding signal (z-score),[7],0.64
same,glycan array binding signal (z-score),[8],0.693
same,glycan array binding signal (z-score),[9],0.084
same,glycan array binding signal (z-score),[10],0.368
same,glycan array binding signal (z-score),[11],0.009
same,glycan array binding signal (z-score),[12],0.182
same,glycan array binding signal (z-score),[13],-0.486
same,glycan array binding signal (z-score),[14],-0.266
same,glycan array binding signal (z-score),[15],-0.472
same,glycan array binding signal (z-score),[16],-0.48
same,glycan array binding signal (z-score),[17],-0.445
same,glycan array binding signal (z-score),[18],-0.037
same,glycan array binding signal (z-score),[19],-0.377
same,glycan array binding signal (z-score),[20],-0.488
same,glycan array binding signal (z-score),[21],-0.135
same,glycan array binding signal (z-score),[22],-0.18
same,glycan array binding signal (z-score),[23],0.179
same,glycan array binding signal (z-score),[24],-0.041
same,glycan array binding signal (z-score),[25],0.044
same,glycan array binding signal (z-score),[26],-0.504
same,glycan array binding signal (z-score),[27],-0.329
same,glycan array binding signal (z-score),[28],0.34
same,glycan array binding signal (z-score),[29],0.247
same,glycan array binding signal (z-score),[30],0.056
same,glycan array binding signal (z-score),[31],-0.42
same,glycan array binding signal (z-score),[32],0.131
same,glycan array binding signal (z-score),[33],-0.325
same,glycan array binding signal (z-score),[34],0.083
same,glycan array binding signal (z-score),[35],-0.399
same,glycan array binding signal (z-score),[36],0.421
same,glycan array binding signal (z-score),[37],0.134
same,glycan array binding signal (z-score),[38],0.238
same,glycan array binding signal (z-score),[39],-0.326
same,glycan array binding signal (z-score),[40],-0.455
same,glycan array binding signal (z-score),[41],-0.299
same,glycan array binding signal (z-score),[42],-0.256
same,glycan array binding signal (z-score),[43],-0.479
same,glycan array binding signal (z-score),[44],-0.112
same,glycan array binding signal (z-score),[45],0.598
